Source: a collection of fitness landscapes (doi:10.1016/j.celrep.2020.107928)
In all, about 81,000 sequences were measured (“one-hybrid fitness for binding NBS DNA”: median about -0.1, highest 2% from about 0.36 on). Some of the results follow.

B1: Caulobacter ParB omega fusion; a variant is named by its letters at X, in order, B8GW30 (parent)
chain: MESVVVGEPGMSEGRRGLGRGLSALLGEVDAAPAQAPGEQLGGSREAPIEILQRNPDQPRRTFREEDLEDLSNSIREKGVLQPILVRPSPDTAGEYQIVAGERAWRAAQRAGLKTVPIMVRELDDLAVLEIGIIENVQRADLNVLEEALSYKVLMEKFERTQENIAQTIGKSXSHVANXMRLLXLPDEVQSYLVSGELTAXHARAIAAAADPVALAKQIIEGGLSVRETEALARKAPNLSAGKSKGGRPPRVKDTDTQALESDLSSVLGLDVSIDHRGSTGTLTITYATLEQLDDLCNRLTRGI

Variants of: B1
Assay: one-hybrid fitness for binding NBS DNA (the Noc-binding site; scaled: cognate 1, non-cognate 0); higher = stronger binding
Conditions: with NBS DNA site
Method in brief: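 Values were rescaled so that cognate is 1 and non-cognate is 0. Each is a fitness, the log change in a variant's read ratio to wild type from Illumina reads of plasmids before and after selection, with three replicate libraries pooled and variants under 10 reads dropped. Selection of the Caulobacter ParB libraries, four specificity codons randomised, used E. coli USO with a HIS3 reporter, site 19 bp from the promoter, on M9-minus-histidine with 0.1 mM IPTG and 5 mM 3-AT for 48 hours at 37°C.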

Variant	one-hybrid fitness for binding NBS DNA
NGPA	≤ 0.2
AGVC	≤ 0.2
SKWH	≤ 0.2
HNSK	≤ 0.2
SLSE	≤ 0.2
DHGR	≤ 0.2
AHPE	≤ 0.2
TPQS	≤ 0.2
NTKH	≤ 0.2
MWYR	≤ 0.2
VMPG	≤ 0.2
LLDT	≤ 0.2
YQCV	≤ 0.2
VLFM	≤ 0.2
QYPE	≤ 0.2
GGAS	≤ 0.2
CCTY	≤ 0.2
TRHT	0.364
WYQS	≤ 0.2
SVKL	≤ 0.2
QCNT	0.569
WAKG	≤ 0.2
LCSA	≤ 0.2
RAKR	0.668
QICV	≤ 0.2

Variant	one-hybrid fitness for binding NBS DNA
ARID	≤ 0.2
YHKS	≤ 0.2
GMDG	≤ 0.2
PDSE	≤ 0.2
TSQD	≤ 0.2
HGLS	≤ 0.2
QVTC	≤ 0.2
TTTN	≤ 0.2
LEEC	≤ 0.2
AAVD	≤ 0.2
QTNY	0.431
MYLM	≤ 0.2
LKEV	≤ 0.2
AWRT	≤ 0.2
WQFG	≤ 0.2
EKTT	≤ 0.2
AITE	≤ 0.2
IQCS	≤ 0.2
ANSH	≤ 0.2
RYHS	0.441
MLYS	≤ 0.2
CISL	≤ 0.2
TYVC	≤ 0.2
TKKQ	≤ 0.2
GASR	≤ 0.2

Variant	one-hybrid fitness for binding NBS DNA
PNPC	≤ 0.2
TFQK	≤ 0.2
HIEK	≤ 0.2
YLCY	≤ 0.2
ERRV	≤ 0.2
PAKC	≤ 0.2
STPT	≤ 0.2
LKQP	≤ 0.2
YCIW	≤ 0.2
CEQS	≤ 0.2
RKHQ	≤ 0.2
LLAN	≤ 0.2
SIYF	≤ 0.2
QRWT	0.707
DSYD	≤ 0.2
QPQT	≤ 0.2
AQHL	≤ 0.2
ECTS	≤ 0.2
KNRV	≤ 0.2
MLNE	≤ 0.2
HYTD	≤ 0.2
RYYQ	≤ 0.2
SMAI	≤ 0.2
VSYC	≤ 0.2
ITYG	≤ 0.2

Variant	one-hybrid fitness for binding NBS DNA
PMSM	≤ 0.2
RSQW	≤ 0.2
ELDL	≤ 0.2
CTGH	≤ 0.2
RVMI	≤ 0.2
LGYN	≤ 0.2
LQIN	≤ 0.2
DEWS	≤ 0.2
SEPA	≤ 0.2
IEYR	≤ 0.2
RKAD	≤ 0.2
CRKT	0.365
ISNG	≤ 0.2
QHMT	0.328
IINW	≤ 0.2
VYRP	≤ 0.2
TNMC	≤ 0.2
YPAA	≤ 0.2
QYCT	0.419
HGER	≤ 0.2
YLEG	≤ 0.2
ALPM	≤ 0.2
NEAP	≤ 0.2
QGYV	≤ 0.2
LMWL	≤ 0.2

Variant	one-hybrid fitness for binding NBS DNA
HSLD	≤ 0.2
CNYR	≤ 0.2
WRVS	≤ 0.2
GTGR	≤ 0.2
SLNS	≤ 0.2
AAHH	≤ 0.2
TLFA	≤ 0.2
RHCW	≤ 0.2
ERNM	≤ 0.2
PSRG	≤ 0.2
KAVK	≤ 0.2
NVDR	≤ 0.2
VFTR	≤ 0.2
FGNT	≤ 0.2
VVSC	≤ 0.2
NHFT	≤ 0.2
RAPK	≤ 0.2
VWTS	≤ 0.2
AQAL	≤ 0.2
WRDF	≤ 0.2
SSEE	≤ 0.2
WIKS	≤ 0.2
QRCL	0.251
MLQF	≤ 0.2
QGCR	≤ 0.2

Variant	one-hybrid fitness for binding NBS DNA
RQCG	≤ 0.2
KRSQ	≤ 0.2
ALDM	≤ 0.2
STWC	≤ 0.2
ALGA	≤ 0.2
STRQ	≤ 0.2
AIVS	≤ 0.2
DASW	≤ 0.2
RSIS	0.203
NHGR	≤ 0.2
SETF	≤ 0.2
TMAC	≤ 0.2
PVVW	≤ 0.2
GLVC	≤ 0.2
SYKL	≤ 0.2
NPTM	≤ 0.2
IHTM	≤ 0.2
CEWG	≤ 0.2
ISAL	≤ 0.2
MNSY	≤ 0.2
AGKS	≤ 0.2
MRDL	≤ 0.2
QTMV	≤ 0.2
MTVC	≤ 0.2
SDNT	≤ 0.2

Variant	one-hybrid fitness for binding NBS DNA
NRAV	≤ 0.2
TCML	≤ 0.2
KTGE	≤ 0.2
WWDC	≤ 0.2
VTFR	≤ 0.2
LFHG	≤ 0.2
WDNT	≤ 0.2
EHST	≤ 0.2
LHKV	≤ 0.2
RYLS	0.272
HSCI	≤ 0.2
VKMN	≤ 0.2
GGKL	≤ 0.2
DDMR	≤ 0.2
YDEG	≤ 0.2
DYRI	≤ 0.2
EYPR	≤ 0.2
HAIC	≤ 0.2
AFSF	≤ 0.2
FKRW	≤ 0.2
EPCT	≤ 0.2
PHAS	≤ 0.2
PHHS	≤ 0.2
PNIG	≤ 0.2
LEEY	≤ 0.2

Variant	one-hybrid fitness for binding NBS DNA
VLTE	≤ 0.2
GIHT	≤ 0.2
KFWS	≤ 0.2
QEGP	≤ 0.2
QRGN	0.418
PQWP	≤ 0.2
YSAV	≤ 0.2
DTLP	≤ 0.2
HPHA	≤ 0.2
RYAS	0.342
VIVY	≤ 0.2
YIPY	≤ 0.2
TWAS	≤ 0.2
RDHN	≤ 0.2
VLGF	≤ 0.2
APIF	≤ 0.2
DGAS	≤ 0.2
QERM	≤ 0.2
DMTI	≤ 0.2
QWRR	0.355
